# Experimental data taken from ChEMBL document CHEMBL4888484, “Replenishing the malaria drug discovery pipeline: Screening and hit evaluation of the MMV Hit Generation Library 1 (HGL1) against asexual blood stage Plasmodium falciparum ,using a nano luciferase reporter read-out” (2022).
# Among all 150,000 compounds or so, about 540 (0.36%) showed an effect of 50% or more. This is one part of the list.
# Test system: Plasmodium falciparum
# Test: Primary screen in NF54 nanoGlo assay, in single point, at 2uM, 72h; a lower Z score goes with more inhibition
# Format: functional, Erythrocyte
# Details: timepoint 72 hour
Structure (SMILES),% Inhibition,Z score
Cc1ccn(C)c1C(=O)N(C)CCN(C)C(=O)c1c(C)ccn1C,-5%,0.49
COC1CCCC1C1COCCN1S(=O)(=O)c1ccc(C(N)=O)cc1 (stereo not given),-7%,1.09
CC1CC(NC(=O)OC(C)(C)C)CCN1C(=O)OC(C)(C)C (stereo not given),-5%,0.79
CCCC[C@H](CC)COCc1cccc(N)c1,-15%,1.96
CNC(=O)[C@H](C)S(=O)(=O)c1cccc(OC)c1,-2%,0.25
Cc1noc(CO[C@H]2CCCN(C(=O)NCc3ccccc3)C2)n1,6%,-0.83
Cc1nnc(CNC(=O)C[C@H](C)c2cccc(C(F)(F)F)c2)n1C,-9%,1.62
C[C@@H]1CN(C[C@@H]2CN(C(=O)c3ccc4nccnc4c3)C[C@@H]2CO)C[C@H](C)O1,-12%,1.7
CN(C)C(=O)[C@]12CCS(=O)(=O)N(C)[C@@H]1CCN(C(=O)CCc1c[nH]c3ccccc13)C2,0%,-0.02
O=C(Nc1cc(Cl)ccc1OCC1CCC1)N1CCC(c2ccn[nH]2)CC1,5%,-0.7
O=C(c1ccccc1)N(CCN1CCCC1)C1CCOCC1,2%,-0.28
O=C(Nc1ccc2c(c1)OCO2)N1C[C@@H]2CC[C@H]1CNC2,1%,-0.2
Cc1cc(C(=O)NC[C@@]2(c3cnn(C)c3)CCCO2)ncn1,-2%,0.19
CCc1cc(NC2CCOC2C)n(C)n1 (stereo not given),-20%,2.03
CC1=C[C@@H](C)CN(S(=O)(=O)c2c(C)nn(C)c2C)C1,-12%,1.05
CN1CCCC(C(=O)NC2CCCc3ccccc32)C1 (stereo not given),-9%,0.8
CCc1ccc(-n2ccc3c(nnc4ncnn43)c2=O)cc1,2%,-0.35
CCc1cc(C#N)ccc1NC(=O)c1cccc(CN2CCNC(=O)C2)c1,-5%,0.73
COc1ccc(-c2cccc(C(=O)N3CCC4(CCCC4)C3)c2)cc1C(C)=O,-3%,0.55
O=C1CC[C@@]2(CCCN(C(=O)c3cccnc3)C2)CN1CCc1c[nH]cn1,-6%,1.18
CN(C)c1ccccc1CN(CCC#N)C1CC1,-2%,0.19
Cc1c(Cl)cccc1NC(=O)CC(=O)N1CCC[C@H](CN2CCN(C)CC2)C1,-2%,0.39
Cc1cc(NC(=O)c2cc(C3CC3)on2)ccc1N1CCCC1=O,6%,-0.89
CC(=O)N1C[C@@H]2OC(=O)N(C3CCN(C(=O)c4ccc5cccnn45)CC3)[C@@H]2C1,-10%,1.55
CC(NCC(=O)Nc1ccncc1)C(C)n1cccn1 (stereo not given),-9%,1.25
O=C(N1CCC[C@H](Oc2ccc(Cl)cn2)C1)C1(O)CCC1,-11%,1.48
C[C@H](NS(=O)(=O)c1ccc(Cl)s1)C(=O)NCc1cscn1,0%,-0.01
COCCN(Cc1c(C(C)C)nn(-c2ccccc2)c1Oc1cccc(F)c1)C(=O)C1CCCC1,0%,0.03

Structure (SMILES),% Inhibition,Z score
CCC(=O)N[C@@H](C)COc1ccccc1,-10%,1.55
CC(C)c1nc([C@@H](NC(=O)OC(C)(C)C)C2CC2)no1,-15%,2.83
CCn1ncc(C(=O)N2CC[C@@]3(O)CCCC[C@H]3C2)c1C,14%,-1.81
CCCc1n[nH]cc1C(=O)N1C[C@@H]2[C@@H]3CC[C@@H](C3)[C@@H]2C1,-26%,3.38
CC[C@](C)(C#N)C(=O)Nc1ccc(F)cc1,0%,0.01
CC(C)COc1cncc(N2CC[C@H](N3CC=CC3)C2)n1,5%,-0.87
CCN(Cc1noc(C)n1)C(=O)Cc1ccncc1,-7%,0.64
Cc1ccc(C(C)(C)NC(=O)CCOc2ccccc2)cn1,-8%,0.8
Cc1nc(N[C@H]2CCCc3ccccc32)c2cccnc2n1,-12%,2.24
O=C(NCc1sc2ccccc2c1Cl)C1CCOCC1,-9%,1.26
O=C(C[C@H]1CCS(=O)(=O)C1)N1CCN(c2ncccn2)CC1,-11%,2.29
CC[C@H](c1ccccc1)c1nc(-c2cccc(-c3ccnn3CC)c2)no1,-1%,0.15
Cn1cccc1C(=O)N1CCc2[nH]c3ccc(F)cc3c2C1,-5%,0.69
CC(C)CN(CC(F)(F)F)C(=O)CN(C)C(=O)[C@H](C)n1cccn1,-1%,0.1
Cc1ccc(CNC(=O)c2ccc(OCc3nnc(C(=O)Nc4ccccc4F)s3)cc2)o1,-13%,2.37
CC(C)c1nnc(NC(=O)c2cnc(C(C)C)s2)[nH]1,-10%,1.35
Cc1cc(F)cc(C(=O)NCc2ccccc2CN2CC[C@H](O)C2)c1,-2%,0.25
COCC(O)CN(Cc1cccc(Cl)c1)CC1CC(c2ccccc2F)=NO1 (stereo not given),-10%,1.04
CCc1ccc(C(=O)N[C@@H]2COCC[C@@H]2OCCO)s1,-11%,1.41
O=C(NC[C@H](O)c1ccc(Cl)s1)c1ccsc1,32%,-0.18
COCCc1noc([C@@H]2CCCN2Cc2cc3c(cc2C)OCO3)n1,-10%,1.91
O=C(CC1(CN2Cc3ccccc3C2=O)CCCCC1)Nc1nc[nH]n1,-5%,0.64
Cn1cc(C(=O)NC[C@H]2Cc3ccccc3CO2)nn1,14%,-1.64
Cc1ccc(Br)cc1C(=O)NS(=O)(=O)CC1CC1,-11%,1.1
Cc1oc(CNC(=O)C(C)(C)C)nc1C(=O)N1CCC(C)CC1,-7%,0.88
CCCN1C[C@@H](NC(=O)NCCNC(=O)c2ccccc2Cl)CC1=O,-11%,1.56
O=C1NCC(=O)N2CCN(C(=O)NCCCc3ccccc3F)C[C@@H]12,0%,-0.02
